The list shows a part of the results.

The text below walks through data of publication PMC12136788.

B1: ENSG00000110492:stop:overlap|stop_codon|ENSG00000110492|stop_codon|NA|stop_codon (ssRNA)
RNA: GGGAGUUCUACAGUCCGACGAUCAGCCCUGCACCCCCAAGACCAAAGCAAAGGCCAAAGCCAAGAAAGGGAAGGGAAAGGACUAGACGCCAAGCCUGGAUGCCAAGGAGCCCCUGGUGUCACAUGGGGCCUGGCCCACGCCCUCAACAGAGGAUUGAGCAUCA
B2: ENSG00000118515:stop:overlap|stop_codon|ENSG00000118515|stop_codon|NA|stop_codon (ssRNA)
RNA: GGGAGUUCUACAGUCCGACGAUCCUUCUGAGGAAGACCUAGAAUUGUGGUCUUUGUUAGCUCAUUAUGUUAUUUUUUUAAAGUAGGCUUUAUAUUUUAGAGCAGCUUUAAGUUCACAGCAACAUUGAGCAGAAGGUACAGAGACAACAGAGGAUUGAGCAUCA
B3: chr15:40903593:40903694:+|3pUTR|ENSG00000104142|msi1|total|mutant (ssRNA)
RNA: GGGAGUUCUACAGUCCGACGAUCCAGCCGAGGCCCUUCACCUGGAGAAGUCAGAAAUCUGACCCAAUUCCACCCCCUGCCUCCCGCACCUCUUCUGUCCCUGUCAUUCCCCACACACGUCCUGUUCACCUCGAGAGAGAGAGACAACAGAGGAUUGAGCAUCA
B4: chr13:29511929:29512034:-|3pUTR|ENSG00000139514|msi1_unk|total|mutant (ssRNA)
RNA: GGGAGUUCUACAGUCCGACGAUCUAUCAUAUCCCUCAUUUCUUUCCCUGAAAUAAAAAUACACACAAGCAAAAAAAAAAUGACCGUUUCACAUCUCUCCGUUCCCUUGCCCAAACAAGAAUAUUCUCCGUUCCACUGGCCAGGCAACAGAGGAUUGAGCAUCA
B5: chr9:34635388:34635489:-|3pUTR|ENSG00000147955|msi1|FALSE|unique (ssRNA)
RNA: GGGAGUUCUACAGUCCGACGAUCGGGAUAUCCAUGCUUAUGUAUCCAAACACAGAGACCCAUGGGAACAAAUGAGACACAUAUAGAUACUGAGACCUGUGUGUACAGUAGGACCAUGCACUCACACCCAUCUGGAGAGGGAGCCAACAGAGGAUUGAGCAUCA
B6: chr7:29923496:29923595:-|3pUTR|ENSG00000136193|msi1_unk|FALSE|overlapping (ssRNA)
RNA: GGGAGUUCUACAGUCCGACGAUCUCACAGUGCCGAGUUGGCGGGAAAAGCAAAUUCUUUUGAAGUCUUAGUCUUUCCCUCAGUAGCGGUUUCUUUCAGGUUAACAAGAGGCAUUUGUGCACACACACAGGGCUCUUGUGUGUGCAACAGAGGAUUGAGCAUCA

For the experiment, the target named is MSI1 full-length (mouse, UniProt Q61474 1-362). The experiment in a line: nsRBNS (natural sequence RNA bind-n-seq); RBNS binding buffer (assumed for nsRBNS): 25 mM Tris pH 7.5, 150 mM KCl, 3 mM MgCl2, 0.01% Triton X-100, 500 ug/ml BSA, 20 U/ml SUPERase-In, 4 C; UNK is unkempt and MSI1 is Musashi-1; names of the RNAs are library labels; protein concentration not given here; high values mean tight binding.
Chain of UniProt Q61474 (Q61474 whole entry): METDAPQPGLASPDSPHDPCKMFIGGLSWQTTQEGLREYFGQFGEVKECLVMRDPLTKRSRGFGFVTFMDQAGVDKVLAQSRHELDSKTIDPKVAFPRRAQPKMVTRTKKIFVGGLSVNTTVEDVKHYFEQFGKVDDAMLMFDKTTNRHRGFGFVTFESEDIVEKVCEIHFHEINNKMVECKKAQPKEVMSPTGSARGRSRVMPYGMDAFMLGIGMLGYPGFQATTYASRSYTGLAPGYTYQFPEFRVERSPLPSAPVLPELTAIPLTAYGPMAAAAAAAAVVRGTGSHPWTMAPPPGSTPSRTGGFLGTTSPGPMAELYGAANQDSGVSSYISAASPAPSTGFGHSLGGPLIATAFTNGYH
Take B1: the binding signal stood at 0.51 enrichment R. Molecule B2 showed a binding signal of 0.687 enrichment R. As for B3, the figure is 0.587 enrichment R; as for B4, 0.638 enrichment R; as for B5, 0.728 enrichment R. For the molecule B6, the binding signal amounted to 0.341 enrichment R.
